Experimental data: article PMC11995724, “Antibiotic target discovery by integrated phenotypic and activity-based profiling of electrophilic fragments” (Cell chemical biology, 2025)
In all, about 3,200 compounds went through this assay and about 75 (2%) showed an effect of 50% or more. This is one part of the list.

What follows are compounds tested on T1, S. aureus MSSA476. Conditions: relative growth, OD600, TSB; 25 µM; inhibitor.
T1 construct: MSSA476
Parameters: species or system S. aureus MSSA476 (TSB) or V. cholerae SAD30 (LB); 384-well bacterial growth screen at 25 uM, OD600 relative to DMSO control

Row | SMILES | % of control remaining
1 | O=C(CCl)N1CCCCC1c1nc(-c2ccccn2)cs1 (centres unmarked) [5-G18, 2-chloro-1-{2-[4-(pyridin-2-yl)-1,3-thiazol-2-yl]piperidin-1-yl}ethan-1-one] | 94.7177%
2 | CSc1ccccc1NC(=O)C(C)Cl (centres unmarked) [4-M12, 2-chloro-N-[2-(methylsulfanyl)phenyl]propanamide] | 99.0948%
3 | O=C(CCl)N1C2CCC1c1ccccc12 [5-M11, 1-{11-azatricyclo[6.2.1.0,2,7]undeca-2,4,6-trien-11-yl}-2-chloroethan-1-one] | 83.4244%
4 | O=C(CCl)Nc1ccccc1C(=O)Nc1ccc(F)cc1 [6-D12, 2-(2-chloroacetamido)-N-(4-fluorophenyl)benzamide] | 76.1463%
5 | C=CC(=O)N1CCC(C(=O)NC2CCOC3(CCSCC3)C2)CC1 (centres unmarked) [2-B12, N-{1-oxa-9-thiaspiro[5.5]undecan-4-yl}-1-(prop-2-enoyl)piperidine-4-carboxamide] | 114.883%
6 | CCCc1cc(NC(=O)CCl)n(-c2ccccc2)n1 [4-M03, 2-chloro-N-(1-phenyl-3-propyl-1H-pyrazol-5-yl)acetamide] | 94.5212%
7 | Cc1ccc2[nH]c3c(c2c1)CCCC3N(C)C(=O)CCl (centres unmarked) [6-H07, 2-chloro-N-methyl-N-(6-methyl-2,3,4,9-tetrahydro-1H-carbazol-1-yl)acetamide] | 85.3659%
8 | COc1ccc(C=C(C#N)C(=O)Nc2ccccc2Cl)cc1O [8-C21, N-(2-chlorophenyl)-2-cyano-3-(3-hydroxy-4-methoxyphenyl)prop-2-enamide] | 81.3278%
9 | Cc1ccc2nc(-c3ccc(NC(=O)CCl)cc3)sc2c1 [6-I05, 2-chloro-N-[4-(6-methyl-1,3-benzothiazol-2-yl)phenyl]acetamide] | 90.1463%
10 | C=CC(=O)N1CCCC(Cc2noc(C)n2)C1 (centres unmarked) [1-L20, 1-{3-[(5-methyl-1,2,4-oxadiazol-3-yl)methyl]piperidin-1-yl}prop-2-en-1-one] | 120.264%
11 | COc1ccc(Cl)cc1CNC(=O)CCl [6-A16, 2-chloro-N-[(5-chloro-2-methoxyphenyl)methyl]acetamide] | 87.4146%
12 | N#CC(=Cc1cccc([N+](=O)[O-])c1)C(=O)NCc1ccc(Cl)cc1 [8-F16, N-[(4-chlorophenyl)methyl]-2-cyano-3-(3-nitrophenyl)prop-2-enamide] | 85.6432%
13 | N#CC(=Cc1sc2ccccc2c1Cl)C(=O)Nc1nccs1 [9-F15, 3-(3-chloro-1-benzothiophen-2-yl)-2-cyano-N-(1,3-thiazol-2-yl)prop-2-enamide] | 101.573%
14 | CC(Cl)C(=O)NCc1ccc(F)cc1 (centres unmarked) [5-A19, 2-chloro-N-[(4-fluorophenyl)methyl]propanamide] | 99.4536%
15 | C=CC(=O)Nc1nc2c(s1)-c1cc(OC)ccc1CC2 [1-J21, N-{8-methoxy-4H,5H-naphtho[2,1-d][1,3]thiazol-2-yl}prop-2-enamide] | 115.692%
16 | Cc1ccc2nc(-c3ccc(N4C(=O)C=CC4=O)cc3)sc2c1 [10-K18, 1-[4-(6-methyl-1,3-benzothiazol-2-yl)phenyl]-2,5-dihydro-1H-pyrrole-2,5-dione] | 130%
17 | Cc1nn(C)c(NC(=O)C(C)Cl)c1-c1ccccc1 (centres unmarked) [7-F21, 2-chloro-N-(1,3-dimethyl-4-phenyl-1H-pyrazol-5-yl)propanamide] | 108.006%
18 | C=CC(=O)NC(C)(C)c1nc(-c2ccccc2F)c(C)s1 [1-H04, N-{2-[4-(2-fluorophenyl)-5-methyl-1,3-thiazol-2-yl]propan-2-yl}prop-2-enamide] | 100.571%
19 | C=CC(=O)N1CCC(Cc2nc(CC)no2)CC1 [3-A11, 1-{4-[(3-ethyl-1,2,4-oxadiazol-5-yl)methyl]piperidin-1-yl}prop-2-en-1-one] | 108.663%
20 | Cc1cccc(NC(=O)C(C#N)=Cc2ccc(F)cc2)c1 [9-E12, 2-cyano-3-(4-fluorophenyl)-N-(3-methylphenyl)prop-2-enamide] | 96.4794%
21 | C=CC(=O)NCCC1COCCO1 (centres unmarked) [2-H15, N-[2-(1,4-dioxan-2-yl)ethyl]prop-2-enamide] | 130.2%
22 | CC(C)(C)C(=O)NCc1ccc(C(=O)CCl)s1 [10-P10, N-{[5-(2-chloroacetyl)thiophen-2-yl]methyl}-2,2-dimethylpropanamide] | 113.75%

Row | SMILES | % of control remaining
23 | C=CC(=O)NCC1(c2ccccc2Cl)CCCCC1 [1-A17, N-{[1-(2-chlorophenyl)cyclohexyl]methyl}prop-2-enamide] | 110.066%
24 | CCOC(=O)c1cnn2ccc(NC(=O)C(C)Cl)cc12 (centres unmarked) [5-N21, ethyl 5-(2-chloropropanamido)pyrazolo[1,5-a]pyridine-3-carboxylate] | 112.933%
25 | C=CC(=O)N1CCC(C(=O)NCCc2c(C)n[nH]c2C)CC1 [2-D04, N-[2-(3,5-dimethyl-1H-pyrazol-4-yl)ethyl]-1-(prop-2-enoyl)piperidine-4-carboxamide] | 98.1723%
26 | C=CC(=O)NCc1cc(C(F)(F)C(F)(F)F)on1 [3-B19, N-{[5-(1,1,2,2,2-pentafluoroethyl)-1,2-oxazol-3-yl]methyl}prop-2-enamide] | 127.819%
27 | CC(C)Oc1ccccc1C=C(C#N)C(=O)Nc1ccc(Cl)cc1 [9-L20, N-(4-chlorophenyl)-2-cyano-3-[2-(propan-2-yloxy)phenyl]prop-2-enamide] | 108.464%
28 | N#CC(=Cc1ccc(N2CCOCC2)cc1)C(=O)NCC1CCCO1 (centres unmarked) [9-O10, 2-cyano-3-[4-(morpholin-4-yl)phenyl]-N-[(oxolan-2-yl)methyl]prop-2-enamide] | 98.5768%
29 | CNC(=O)c1cc(OC2CCN(C(=O)C(C)Cl)C2)ccn1 (centres unmarked) [7-G03, 4-{[1-(2-chloropropanoyl)pyrrolidin-3-yl]oxy}-N-methylpyridine-2-carboxamide] | 97.0173%
30 | N#CC(=Cc1cccc(F)c1F)C(=O)NC(N)=O [8-H04, {2-cyano-2-[(2,3-difluorophenyl)methylidene]acetyl}urea] | 101.909%
31 | CSc1ccc(C(=O)CCl)cc1 [10-E07, 2-chloro-1-[4-(methylsulfanyl)phenyl]ethan-1-one] | 2.1875%
32 | CCNC(=O)C(C#N)=Cc1ccc(OC(F)F)cc1 [8-E05, 2-cyano-3-[4-(difluoromethoxy)phenyl]-N-ethylprop-2-enamide] | 113.527%
33 | CC(Cl)C(=O)Nc1c(Cl)cc(Cl)cc1Cl (centres unmarked) [6-K09, 2-chloro-N-(2,4,6-trichlorophenyl)propanamide] | 95.2683%
34 | O=C(NC1CCCN(C(=O)CCl)C1)c1cc2ccccc2o1 (centres unmarked) [5-D05, N-[1-(2-chloroacetyl)piperidin-3-yl]-1-benzofuran-2-carboxamide] | 87.796%
35 | C=CC(=O)N1Cc2ccccc2C[C@@H]1C(=O)NC1CC1 [2-G06, (3R)-N-cyclopropyl-2-(prop-2-enoyl)-1,2,3,4-tetrahydroisoquinoline-3-carboxamide] | 100.261%
36 | C=CC(=O)NCc1cccc2c1OCO2 [1-E07, N-[(1,3-dioxaindan-4-yl)methyl]prop-2-enamide] | 104.791%
37 | C=CC(=O)N1CCCC(CNS(=O)(=O)C2CC2)C1 (centres unmarked) [3-G21, N-{[1-(prop-2-enoyl)piperidin-3-yl]methyl}cyclopropanesulfonamide] | 121.898%
38 | C=CC(=O)NCCC(=O)N1CCC(C)(C)S(=O)(=O)CC1 [3-G19, N-[3-(7,7-dimethyl-1,1-dioxo-1lambda6,4-thiazepan-4-yl)-3-oxopropyl]prop-2-enamide] | 120.505%
39 | C=CC(=O)NCCn1cc(C2CCOC2)cn1 (centres unmarked) [2-L09, N-{2-[4-(oxolan-3-yl)-1H-pyrazol-1-yl]ethyl}prop-2-enamide] | 121.497%
40 | Cc1cc(C(=O)CCl)c(C)n1C(c1ccccc1)c1ccccc1 [10-I08, 2-chloro-1-[1-(diphenylmethyl)-2,5-dimethyl-1H-pyrrol-3-yl]ethan-1-one] | 140.625%
41 | C=CC(=O)N1CCC(C(=O)N2CCC(CC(N)=O)C2)CC1 (centres unmarked) [2-J14, 2-{1-[1-(prop-2-enoyl)piperidine-4-carbonyl]pyrrolidin-3-yl}acetamide] | 126.023%
42 | CCCCNC(=O)C(C#N)=Cc1c(Cl)nc2ccccn12 [9-O09, N-butyl-3-{2-chloroimidazo[1,2-a]pyridin-3-yl}-2-cyanoprop-2-enamide] | 99.7753%
43 | CC(Cl)C(=O)N1CCN(c2cc(-c3ccccc3F)n[nH]2)CC1 (centres unmarked) [6-N20, 2-chloro-1-{4-[3-(2-fluorophenyl)-1H-pyrazol-5-yl]piperazin-1-yl}propan-1-one] | 94.9268%
44 | Cl.O=C(CCl)NC1(c2nc(-c3ccccc3)c[nH]2)CCCC1 [7-J08, 2-chloro-N-[1-(4-phenyl-1H-imidazol-2-yl)cyclopentyl]acetamide hydrochloride] | 106.122%
